Source: article PMC10899377
Positions count from the first letter of the chain named. Names may count otherwise. These are yes or no findings as the source states them, for the method shown. In cells and extracts the contact can be indirect. Some binding calls cover weakened binding; strength is not graded here. Tags and fused reporters may be left off the sequences shown.

Sequences of proteins named here, by UniProt entry; tags and fusion partners are left off.
UniProt P62491: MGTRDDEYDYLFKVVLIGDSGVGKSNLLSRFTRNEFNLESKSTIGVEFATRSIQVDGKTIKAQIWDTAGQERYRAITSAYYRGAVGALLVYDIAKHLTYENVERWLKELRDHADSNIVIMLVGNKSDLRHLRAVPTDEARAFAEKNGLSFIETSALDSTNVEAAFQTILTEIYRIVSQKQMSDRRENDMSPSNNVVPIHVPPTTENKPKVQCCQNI
UniProt P51159: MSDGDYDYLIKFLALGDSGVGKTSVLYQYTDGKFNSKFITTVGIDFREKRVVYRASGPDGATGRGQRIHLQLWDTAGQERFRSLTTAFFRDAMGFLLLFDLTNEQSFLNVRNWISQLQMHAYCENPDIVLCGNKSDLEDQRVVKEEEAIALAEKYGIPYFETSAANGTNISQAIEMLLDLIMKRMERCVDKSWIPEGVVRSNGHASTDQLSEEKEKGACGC

T1: GDI2 (UniProt P50395)
T1 sequence: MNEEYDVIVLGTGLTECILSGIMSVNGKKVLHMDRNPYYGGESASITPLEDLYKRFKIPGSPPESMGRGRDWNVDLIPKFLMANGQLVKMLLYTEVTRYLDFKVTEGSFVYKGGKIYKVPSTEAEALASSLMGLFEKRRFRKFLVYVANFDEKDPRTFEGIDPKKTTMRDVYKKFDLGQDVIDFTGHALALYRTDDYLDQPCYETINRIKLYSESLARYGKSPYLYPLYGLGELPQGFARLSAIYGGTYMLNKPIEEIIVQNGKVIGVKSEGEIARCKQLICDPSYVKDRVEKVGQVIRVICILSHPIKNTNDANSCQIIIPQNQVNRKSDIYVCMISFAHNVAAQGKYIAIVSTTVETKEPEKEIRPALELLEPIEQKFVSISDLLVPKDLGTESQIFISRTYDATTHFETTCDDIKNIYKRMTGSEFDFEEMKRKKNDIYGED

T2: HA-VPS33B-1 (aa1-146) (UniProt Q9H267)
T2 sequence: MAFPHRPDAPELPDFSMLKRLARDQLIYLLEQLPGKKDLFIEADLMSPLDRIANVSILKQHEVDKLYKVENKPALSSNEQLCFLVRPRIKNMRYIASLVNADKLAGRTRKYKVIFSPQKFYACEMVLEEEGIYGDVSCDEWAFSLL

T3: HA-VPS33B-2 (aa1-304) (UniProt Q9H267)
T3 sequence: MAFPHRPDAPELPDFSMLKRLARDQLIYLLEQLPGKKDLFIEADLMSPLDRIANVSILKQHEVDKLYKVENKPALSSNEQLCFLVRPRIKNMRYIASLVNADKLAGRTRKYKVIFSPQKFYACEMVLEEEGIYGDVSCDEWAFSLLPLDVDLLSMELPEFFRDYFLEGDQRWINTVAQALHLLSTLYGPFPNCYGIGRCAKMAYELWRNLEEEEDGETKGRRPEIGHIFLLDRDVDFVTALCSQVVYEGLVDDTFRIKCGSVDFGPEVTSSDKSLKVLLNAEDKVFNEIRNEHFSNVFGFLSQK

T4: HA-VPS33B-3 (aa1-566) (UniProt Q9H267)
T4 sequence: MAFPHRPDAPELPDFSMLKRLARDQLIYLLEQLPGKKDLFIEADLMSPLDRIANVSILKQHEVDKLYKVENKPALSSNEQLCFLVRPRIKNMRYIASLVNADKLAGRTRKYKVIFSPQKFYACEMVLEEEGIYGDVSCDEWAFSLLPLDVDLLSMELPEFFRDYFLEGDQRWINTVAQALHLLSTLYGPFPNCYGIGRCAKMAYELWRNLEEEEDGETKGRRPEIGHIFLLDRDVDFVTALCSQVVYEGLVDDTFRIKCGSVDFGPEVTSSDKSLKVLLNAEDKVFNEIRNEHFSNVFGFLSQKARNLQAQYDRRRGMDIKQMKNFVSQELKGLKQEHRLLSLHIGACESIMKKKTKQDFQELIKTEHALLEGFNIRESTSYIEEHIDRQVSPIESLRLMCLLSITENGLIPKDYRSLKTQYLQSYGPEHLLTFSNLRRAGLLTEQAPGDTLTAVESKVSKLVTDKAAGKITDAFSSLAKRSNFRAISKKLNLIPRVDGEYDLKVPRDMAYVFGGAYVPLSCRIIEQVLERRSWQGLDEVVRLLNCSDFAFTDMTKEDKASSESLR

T5: HA-VPS33B-4 (aa146-615) (UniProt Q9H267)
T5 sequence: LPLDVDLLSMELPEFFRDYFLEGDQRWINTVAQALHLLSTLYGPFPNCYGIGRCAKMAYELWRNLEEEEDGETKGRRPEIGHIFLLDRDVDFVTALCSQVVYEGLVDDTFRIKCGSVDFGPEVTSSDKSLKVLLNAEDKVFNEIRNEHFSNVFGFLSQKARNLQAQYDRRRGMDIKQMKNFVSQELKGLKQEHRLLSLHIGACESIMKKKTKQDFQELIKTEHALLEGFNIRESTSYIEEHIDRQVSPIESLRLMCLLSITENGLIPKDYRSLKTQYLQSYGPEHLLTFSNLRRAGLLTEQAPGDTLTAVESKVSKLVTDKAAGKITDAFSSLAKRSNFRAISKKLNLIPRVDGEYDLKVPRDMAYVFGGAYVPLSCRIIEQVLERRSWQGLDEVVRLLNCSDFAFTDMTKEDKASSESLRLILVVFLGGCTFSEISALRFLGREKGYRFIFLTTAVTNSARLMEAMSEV

T6: HA-VPS33B-5 (aa304-617) (UniProt Q9H267)
T6 sequence: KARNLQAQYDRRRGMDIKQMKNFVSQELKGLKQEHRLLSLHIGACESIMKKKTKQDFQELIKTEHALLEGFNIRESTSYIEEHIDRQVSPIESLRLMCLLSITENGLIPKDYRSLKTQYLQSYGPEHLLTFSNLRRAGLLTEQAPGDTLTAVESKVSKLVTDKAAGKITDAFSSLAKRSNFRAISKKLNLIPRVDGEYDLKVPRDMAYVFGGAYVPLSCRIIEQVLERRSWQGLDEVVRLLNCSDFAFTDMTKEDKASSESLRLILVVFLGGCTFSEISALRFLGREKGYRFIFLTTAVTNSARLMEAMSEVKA

T7: HA-VPS33B-WT (full-length vacuolar protein sorting 33b) (UniProt Q9H267)
T7 sequence: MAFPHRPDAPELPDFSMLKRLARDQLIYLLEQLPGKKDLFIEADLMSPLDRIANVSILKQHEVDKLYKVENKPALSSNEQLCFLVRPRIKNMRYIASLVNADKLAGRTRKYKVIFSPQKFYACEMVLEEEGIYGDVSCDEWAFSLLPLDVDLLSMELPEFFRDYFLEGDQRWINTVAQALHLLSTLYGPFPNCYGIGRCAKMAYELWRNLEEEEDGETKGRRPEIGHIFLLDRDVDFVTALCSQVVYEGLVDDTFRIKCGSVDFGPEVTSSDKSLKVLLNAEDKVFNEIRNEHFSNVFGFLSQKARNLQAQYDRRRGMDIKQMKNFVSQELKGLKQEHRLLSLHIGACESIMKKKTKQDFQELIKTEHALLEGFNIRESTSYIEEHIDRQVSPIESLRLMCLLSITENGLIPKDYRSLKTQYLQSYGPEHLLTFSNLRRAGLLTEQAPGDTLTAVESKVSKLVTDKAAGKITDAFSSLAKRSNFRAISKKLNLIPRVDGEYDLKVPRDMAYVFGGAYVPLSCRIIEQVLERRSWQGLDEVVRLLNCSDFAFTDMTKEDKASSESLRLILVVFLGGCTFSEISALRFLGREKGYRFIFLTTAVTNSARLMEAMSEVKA

B1: Flag-ANGPTL2 (angiopoietin-like protein 2, wild type) (protein, UniProt Q9UKU9 23-493)
chain: QEDGFEGTEEGSPREFIYLNRYKRAGESQDKCTYTFIVPQQRVTGAICVNSKEPEVLLENRVHKQELELLNNELLKQKRQIETLQQLVEVDGGIVSEVKLLRKESRNMNSRVTQLYMQLLHEIIRKRDNALELSQLENRILNQTADMLQLASKYKDLEHKYQHLATLAHNQSEIIAQLEEHCQRVPSARPVPQPPPAAPPRVYQPPTYNRIINQISTNEIQSDQNLKVLPPPLPTMPTLTSLPSSTDKPSGPWRDCLQALEDGHDTSSIYLVKPENTNRLMQVWCDQRHDPGGWTVIQRRLDGSVNFFRNWETYKQGFGNIDGEYWLGLENIYWLTNQGNYKLLVTMEDWSGRKVFAEYASFRLEPESEYYKLRLGRYHGNAGDSFTWHNGKQFTTLDRDHDVYTGNCAHYQKGGWWYNACAHSNLNGVWYRGGHYRSRYQDGVYWAEFRGGSYSLKKVVMMIRPNPNTFH
B2: ANGPTL2-Mut#2 (R399H and G402S), FLAG-tagged (protein, UniProt Q9UKU9 23-493)
chain: B1 chain with R377H, G380S

Key:
GDI2 = target: T1, GDI2; test: co-IP; immunoprecipitation of WT ANGPTL2 or ANGPTL2 mutants with GDI2, RAB27A or RAB11A; HEK293T lysates; anti-HA or anti-Flag M2 beads, 4 °C; Western blot; which side was precipitated is not told
RAB11A = RAB11A (UniProt P62491); test: as above
RAB27A = RAB27A (UniProt P51159); test: as above
HA-VPS33B-1 (aa1-146) = target: T2, HA-VPS33B-1 (aa1-146); test: co-IP; HEK293T cells co-transfected with HA-VPS33B and Flag-ANGPTL2 plasmids; Pierce IP lysis buffer; lysates immunoprecipitated with anti-HA (plus Protein A/G agarose) or anti-Flag M2 beads overnight at 4 °C; beads washed ten times; Western blot
HA-VPS33B-2 (aa1-304) = target: T3, HA-VPS33B-2 (aa1-304); test: as above
HA-VPS33B-3 (aa1-566) = target: T4, HA-VPS33B-3 (aa1-566); test: as above
HA-VPS33B-4 (aa146-615) = target: T5, HA-VPS33B-4 (aa146-615); test: as above
HA-VPS33B-5 (aa304-617) = target: T6, HA-VPS33B-5 (aa304-617); test: as above
[1] = target: T7, HA-VPS33B-WT (full-length vacuolar protein sorting 33b); test: as above

Binder | binding (GDI2) | binding (RAB11A) | binding (RAB27A) | binding (HA-VPS33B-1 (aa1-146)) | binding (HA-VPS33B-2 (aa1-304)) | binding (HA-VPS33B-3 (aa1-566)) | binding (HA-VPS33B-4 (aa146-615)) | binding (HA-VPS33B-5 (aa304-617)) | binding [1]
B1 | binds | binds | binds | binds | binds | binds | no binding | no binding | binds
B2 |  | binds |  |  |  |  |  |  | binds
